Columns and labels:
[1] = target: T1, monoclonal anti-human IL-2 antibody 5344 (BD, 555051); experiment: sandwich ELISA, 5344 coated, fusion protein titrated, anti-human IgG-Peroxidase
T1 construct: Coated capture antibody
Protocol: The antibody-IL-2 fusion proteins were tested on a sandwich ELISA, to assess the correct folding of the IL-2 portion. […] The obtained signals (Absorbance 450-570 nm) were plotted as function of antibody-IL-2 fusion protein concentration (as log value). The $EC50$ values were interpolated fitting the data with GraphPad Prism 8 (Table 6).

[2] = target: T2, trimeric IL-2 receptor on HEK-Blue IL-2 reporter cells (UniProt P01589 22-272; P14784 27-551; P31785 23-369, limits assumed); experiment: cell-based or functional assay
T2 sequence (looked up) 1: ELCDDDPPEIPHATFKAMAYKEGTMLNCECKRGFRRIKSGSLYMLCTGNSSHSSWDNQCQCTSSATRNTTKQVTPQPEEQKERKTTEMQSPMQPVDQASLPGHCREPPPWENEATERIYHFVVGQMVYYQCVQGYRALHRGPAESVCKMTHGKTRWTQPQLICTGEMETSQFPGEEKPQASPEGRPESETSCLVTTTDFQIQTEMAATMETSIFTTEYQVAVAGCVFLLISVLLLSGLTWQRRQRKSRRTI
T2 sequence (looked up) 2: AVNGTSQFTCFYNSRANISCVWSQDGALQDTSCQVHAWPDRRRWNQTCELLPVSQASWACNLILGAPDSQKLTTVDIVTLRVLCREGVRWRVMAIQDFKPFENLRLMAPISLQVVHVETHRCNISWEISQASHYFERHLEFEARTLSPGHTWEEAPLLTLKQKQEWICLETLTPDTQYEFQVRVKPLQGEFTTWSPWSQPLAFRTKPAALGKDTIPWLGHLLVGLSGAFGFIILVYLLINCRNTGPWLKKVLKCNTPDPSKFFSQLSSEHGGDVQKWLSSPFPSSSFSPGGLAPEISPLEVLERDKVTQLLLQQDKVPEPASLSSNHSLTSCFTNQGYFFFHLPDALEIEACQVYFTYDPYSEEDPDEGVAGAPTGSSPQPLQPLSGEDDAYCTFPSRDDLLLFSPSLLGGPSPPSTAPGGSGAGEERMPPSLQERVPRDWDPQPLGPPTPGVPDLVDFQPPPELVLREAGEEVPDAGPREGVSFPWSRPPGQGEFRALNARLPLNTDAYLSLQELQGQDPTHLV
T2 sequence (looked up) 3: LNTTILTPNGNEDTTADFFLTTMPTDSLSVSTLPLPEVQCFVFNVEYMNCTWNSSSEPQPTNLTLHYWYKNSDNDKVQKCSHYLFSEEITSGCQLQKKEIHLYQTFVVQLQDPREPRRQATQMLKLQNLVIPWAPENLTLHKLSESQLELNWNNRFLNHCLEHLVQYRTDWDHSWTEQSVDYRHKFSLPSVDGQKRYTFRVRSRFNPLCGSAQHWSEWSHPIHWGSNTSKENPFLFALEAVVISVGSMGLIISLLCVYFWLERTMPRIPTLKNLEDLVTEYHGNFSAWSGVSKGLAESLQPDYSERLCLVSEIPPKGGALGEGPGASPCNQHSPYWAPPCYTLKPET

[3] = target: monoclonal anti-human IL-2 antibody Nara1; experiment: ELISA, Nara1 coated, fusion protein titrated, anti-human IgG-Peroxidase; lowest concentration with signal at or above the cut point
[4] = target: T3, IL-2R on murine splenocytes (C57BL/6); experiment: cell-based or functional assay
T3 sequence (P01590 whole entry, looked up): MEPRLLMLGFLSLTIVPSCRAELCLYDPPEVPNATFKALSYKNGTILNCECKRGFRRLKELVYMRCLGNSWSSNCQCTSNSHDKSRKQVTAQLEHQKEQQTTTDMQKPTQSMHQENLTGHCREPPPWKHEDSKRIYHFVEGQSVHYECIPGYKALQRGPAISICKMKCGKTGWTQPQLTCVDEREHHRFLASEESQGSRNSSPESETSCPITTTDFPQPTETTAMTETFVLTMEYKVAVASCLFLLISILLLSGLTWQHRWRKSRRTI
T3 sequence (P16297 whole entry, looked up): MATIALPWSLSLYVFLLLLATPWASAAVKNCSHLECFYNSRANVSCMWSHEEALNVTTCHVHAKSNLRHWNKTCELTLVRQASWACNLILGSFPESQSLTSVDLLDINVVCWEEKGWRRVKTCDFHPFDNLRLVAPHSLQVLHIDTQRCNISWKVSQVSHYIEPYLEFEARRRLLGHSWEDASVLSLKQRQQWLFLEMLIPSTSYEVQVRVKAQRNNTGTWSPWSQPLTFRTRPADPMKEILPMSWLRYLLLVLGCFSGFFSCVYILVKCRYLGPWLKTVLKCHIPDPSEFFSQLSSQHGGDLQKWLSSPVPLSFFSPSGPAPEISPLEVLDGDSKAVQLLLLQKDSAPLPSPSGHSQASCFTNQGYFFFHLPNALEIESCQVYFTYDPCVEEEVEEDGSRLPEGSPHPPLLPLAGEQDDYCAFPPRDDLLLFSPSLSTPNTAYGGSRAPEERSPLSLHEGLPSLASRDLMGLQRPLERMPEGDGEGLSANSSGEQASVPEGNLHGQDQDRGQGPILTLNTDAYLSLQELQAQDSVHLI
T3 sequence (P34902 whole entry, looked up): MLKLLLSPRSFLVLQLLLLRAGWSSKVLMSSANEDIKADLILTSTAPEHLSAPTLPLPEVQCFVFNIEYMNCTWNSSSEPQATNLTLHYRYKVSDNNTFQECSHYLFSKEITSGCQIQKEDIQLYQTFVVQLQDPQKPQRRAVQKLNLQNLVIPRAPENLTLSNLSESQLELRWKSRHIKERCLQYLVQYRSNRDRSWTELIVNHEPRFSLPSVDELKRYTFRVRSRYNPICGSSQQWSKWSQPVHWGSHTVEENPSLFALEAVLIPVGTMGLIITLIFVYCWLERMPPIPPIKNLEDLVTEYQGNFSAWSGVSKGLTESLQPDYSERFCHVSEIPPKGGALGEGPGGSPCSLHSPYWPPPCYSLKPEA

[5] = target: T4, His-tagged recombinant CD25 (human, UniProt P01589 22-213, limits assumed); experiment: SPR (BIAcore 3000), His-tagged CD25 captured via TrisNTA Biotin on SA chip, kinetic titration of fusion protein
T4 construct: Captured via TrisNTA Biotin on SA chips; also called IL-2 receptor alpha; IL-2Rα; not shown: His tag
T4 sequence (looked up): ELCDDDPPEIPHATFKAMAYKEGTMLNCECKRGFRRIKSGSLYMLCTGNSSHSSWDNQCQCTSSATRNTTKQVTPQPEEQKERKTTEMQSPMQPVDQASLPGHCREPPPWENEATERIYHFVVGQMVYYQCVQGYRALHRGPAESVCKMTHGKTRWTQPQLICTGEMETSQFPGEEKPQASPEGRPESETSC
Protocol: HEK-Blue™ IL-2 reporter cells (Invivogen) were incubated with a dilution series (1:3 dilutions from 0.56 nM) of antibody-IL-2 fusion protein in growth medium for 20 hours Example 4. IL-2 fusion protein in vitro selectivity Binding affinities to CD25 measured by SPR Binding affinities of the IL-2 fusion protein to the IL-2 receptor CD25 were measured by SPR (BIAcore 3000, GE Healthcare, 33-1140587-3682). His-tagged recombinant CD25 was captured via TrisNTA Biotin on SA chips and Kinetic titration of IL-2 fusion proteins of the present invention was performed reaching concentrations up to 500 nM.

EC50 [1]: 0.28 nM
EC50 (M), SEAP of HEK-Blue IL-2 reporter cells [2]: 5.58e-12 M
Lowest concentration (nM) OD450-570 ≥ CP [3]: < 0.09 nM
EC50 CD8 cells (nM), pSTAT5 MFI [4]: 70.5 nM
EC50 NK cells (nM), pSTAT5 MFI [4]: 2.5 nM
EC50 Treg cells (nM), pSTAT5 MFI [4]: < 0.016 nM
Kd [5]: 0.2 nM
B1: GLK754 (other)
heavy: EVQLVQSGAEVKKPGESLKISCKGSGYSFTNFYIHWVRQAPGQRLEWMGSIYPNYGDTAYNQKFKDRFVFSLDTSVSTAYLQISSLKAEDTAVYYCARGYSYAMDYWGQGTTVTVSS[omitted - human IgG1 constant region]
light: DIQMTQSPSSVSASVGDRVTITCSASQGISGGGGGSGGGGSGGGNFHLRPRDLISNINVIVLELKGSETTFMCEYADETATIVEFLNRWITFSQSIISTLTPTSSSTKKTQLQLEHLLLDLQMILNGINNYKNPKLTRMLTFKFYMPKKATELKHLQCLEEELKPLEEVLNLAQSKGGGGSGGGGSGGGGDLNWYQQKPGKAPKLLIYHTSSLHSGVPSRFSGSGSGTDFTLTISSLQPEDFATYYCQYYSKDLLTFGGGTKLEIKRTVAAPSVFIFPPSDEQLKSGTASVVCLLNNFYPREAKVQWKVDNALQSGNSQESVTEQDSKDSTYSLSSTLTLSKADYEKHKVYACEVTHQGLSSPVTKSFNRGEC
notes: Antibody-IL-2 fusion on Antibody C; also called IL-2 fusion protein to antibody C, linker 1 13 AA, linker 2 14 AA

Source: patent publication US11773160 (ANAVEON, dated 2023)
